84 variants from the RNAGym collection of RNA variant scans (doi:10.1073/pnas.2313332121) can be followed below.

Variants at the floor of the assay are shown more often than the library holds them.

B1: TPR 5TU (parent)
chain: GGAUCUUCUCGAUCUAACAAAAAAGACAAAUCUGCCACAAAGCUUGAGAGCAUCUUCGGAUGCAGAGGCGGCAGCCUUCGGUGGCGCGAUAGCGCCAACGUUCUCAACUAUGACACGCAAAACGCGUGCUCCGUUGAAUGGAGUUUAUCAUG

The series covers variants of B1. Put plainly: polymerase ribozyme fitness, log enrichment relative to wild type (log ratio); higher = more active; in vitro selection for triplet polymerase activity. The procedure, abridged:
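Mutant libraries for each subunit of a heterodimeric triplet polymerase ribozyme were made by PCR and then transcribed. Each library underwent one round of in vitro selection in triplicate: annealing with a biotinylated primer, the partner subunit and triplets, frozen incubation at −7 °C, gel excision of extended constructs, streptavidin-bead capture and RT-PCR. Input and output libraries were Illumina-sequenced, and only genotypes with ≥10 input reads and ≥1 read per output were kept. Fitness is the logarithm, base 2, of genotype enrichment over wild-type enrichment, computed from inverse-variance-weighted replicate averages.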
As for A24G G67C C69G C85G U102C U146A, the “polymerase ribozyme fitness (log ratio)” value is not above -4.2. For A24G C38G A40U A110C, the “polymerase ribozyme fitness (log ratio)” value was not above -4.2. As to A23U U55A U61C G67A C87U G126U G136C G140U, the “polymerase ribozyme fitness (log ratio)” value is not above -4.2. With A24G A41C G88U C95U G141U, the “polymerase ribozyme fitness (log ratio)” value was not above -4.2. Take A24C G46C C132A: the “polymerase ribozyme fitness (log ratio)” value is not above -4.2. With A24U G58C C63G G80A C96G U145A, the “polymerase ribozyme fitness (log ratio)” value was not above -4.2. On to A24G G80A G88U U148C, for which the “polymerase ribozyme fitness (log ratio)” value is not above -4.2.

On to A24C G92U U146A G152C, for which the “polymerase ribozyme fitness (log ratio)” value is not above -4.2. As for A24G C57A A64G C75G C129A, the “polymerase ribozyme fitness (log ratio)” value is not above -4.2.

For A24U A29G C38U A49C G50U G59A U135A, the “polymerase ribozyme fitness (log ratio)” value is not above -4.2. For A23U U31A G42C C54U G68U C95G the value was not above -4.2.

G25A U44C G58A C96A C116G A119G A142C: the “polymerase ribozyme fitness (log ratio)” value is not above -4.2.

A24C G50A G59A U61A C63G G84A: the “polymerase ribozyme fitness (log ratio)” value was not above -4.2. A24C G65C G86U: the “polymerase ribozyme fitness (log ratio)” value was not above -4.2. As to G25A, the “polymerase ribozyme fitness (log ratio)” value is -1.62. For G25C, the “polymerase ribozyme fitness (log ratio)” value was -2.52.

As to A24U U56G C57G C87G G133A, the “polymerase ribozyme fitness (log ratio)” value was not above -4.2. As to A24U C76A G84U C105A A138U U146G, the “polymerase ribozyme fitness (log ratio)” value was not above -4.2. The value for A23U G83C A115G A137G was not above -4.2. For A24G G74C G92A U104C C105G A110G G112U A113C A119U, the “polymerase ribozyme fitness (log ratio)” value is not above -4.2. For A24C A37C U53A A66U C95A C114G U135C U144A, the “polymerase ribozyme fitness (log ratio)” value is not above -4.2. Take A23U G94A A138C: the “polymerase ribozyme fitness (log ratio)” value is not above -4.2. On to A23U U44A C93G U102A, for which the “polymerase ribozyme fitness (log ratio)” value was not above -4.2. Regarding A24C A47U A49C C54U C75G C85A U130G, the “polymerase ribozyme fitness (log ratio)” value was not above -4.2. In the case of A23U U61A A64C G65A U139C, the “polymerase ribozyme fitness (log ratio)” value is not above -4.2.

For the variant A24C U33G G133U U145G, the “polymerase ribozyme fitness (log ratio)” value was not above -4.2. On to G25C A28G G48A G83C U127C A142C, for which the “polymerase ribozyme fitness (log ratio)” value is not above -4.2. For A24U A52G A66U C79U G86U A138U C149A, the “polymerase ribozyme fitness (log ratio)” value was not above -4.2. Turning to A24G C54A U55A A91G C123U U127A U139A U145A, the “polymerase ribozyme fitness (log ratio)” value was not above -4.2. Consider G25C A26G G59U C75G C76U, for which the “polymerase ribozyme fitness (log ratio)” value is not above -4.2. The value for G25A G68A U77A C87G C108A A119C A122U C125G G143C was not above -4.2. Turning to A24U G46C A60C U102G, the “polymerase ribozyme fitness (log ratio)” value is not above -4.2. For A24C A49U C87A G92A G140U the value was not above -4.2. For A24U U33G U77A C87U the value was not above -4.2.

As for A23U U31G C38U C69U C85G C87U G126U, the “polymerase ribozyme fitness (log ratio)” value is not above -4.2.

A24C G83A C87G A142U: the “polymerase ribozyme fitness (log ratio)” value is not above -4.2. The value for A24G C27G A28G C32A U55A U56A C76A C85A G92C U130G was not above -4.2; that for A24C C57G G58C G88A C116U G124A G141C was not above -4.2. Take A24G C38U A49C U82A C87A C116U G126U A142G: the “polymerase ribozyme fitness (log ratio)” value was not above -4.2. In the case of A24U G71A C75U C85A G141U U144A, the “polymerase ribozyme fitness (log ratio)” value is not above -4.2. In the case of A24U A113C, the “polymerase ribozyme fitness (log ratio)” value was -3.05. The value for A24U A49C C54U C75G C85A A122U U144C A147C was not above -4.2; that for A24C C85A A89U C99A G124A G141U was not above -4.2; that for A24C G58A G59A A147C was not above -4.2. A24C A52C U53G C96G A97G U127A U135G U144G U146C: the “polymerase ribozyme fitness (log ratio)” value is not above -4.2. For A24C C99U U102G A110G U130G G133U U146A, the “polymerase ribozyme fitness (log ratio)” value is not above -4.2. For the variant A24C U56A U77A G88U A115C A121U U144A, the “polymerase ribozyme fitness (log ratio)” value is not above -4.2. Take A24C A41C: the “polymerase ribozyme fitness (log ratio)” value was not above -4.2. As to A24C U33A C35G U53A U82C G92U G136A, the “polymerase ribozyme fitness (log ratio)” value is not above -4.2. As to A24U U31A C63G C76A, the “polymerase ribozyme fitness (log ratio)” value was -3.16. The value for A24U A30U C87A U104A was not above -4.2; that for A24G G86U U148A was not above -4.2; that for A24G A66U C69A G81A C85U A137G was not above -4.2. Consider A24U A29U C72G G84A C95G U109C, for which the “polymerase ribozyme fitness (log ratio)” value was not above -4.2. As to A24G C35U A89U G92C C125A, the “polymerase ribozyme fitness (log ratio)” value is not above -4.2. Turning to A24U C57U C69G G84A C87A A115C, the “polymerase ribozyme fitness (log ratio)” value is not above -4.2. Turning to A24U A37G G50C C72G G92U, the “polymerase ribozyme fitness (log ratio)” value was not above -4.2. For A24U G46A G88C C105U G136A the value was not above -4.2; for A24C G48C G58A A89C A97U C103A, not above -4.2; for A24C G58A, not above -4.2. As for A23U G88A A91C C114U C125A, the “polymerase ribozyme fitness (log ratio)” value is not above -4.2. As to G25A U45A A49G U53A C85U A97U A107C C116A, the “polymerase ribozyme fitness (log ratio)” value was not above -4.2. A24G A52C C93U C105A A120C G126U C149A A150C: the “polymerase ribozyme fitness (log ratio)” value is not above -4.2. For A24C C32A A121U U145C U146C, the “polymerase ribozyme fitness (log ratio)” value was not above -4.2.

Consider A23U U82G G83A C105U C149A, for which the “polymerase ribozyme fitness (log ratio)” value is not above -4.2.

A24G G59C C87A: the “polymerase ribozyme fitness (log ratio)” value is not above -4.2. Turning to A24U G48C A64G C87A A98G U148G, the “polymerase ribozyme fitness (log ratio)” value is not above -4.2. For A24C C69A the value was not above -4.2; for A24C G74C, not above -4.2. Turning to A24U C35A C63U C87U U139C, the “polymerase ribozyme fitness (log ratio)” value is not above -4.2. Regarding G25A G50U U77C C87U, the “polymerase ribozyme fitness (log ratio)” value is not above -4.2.

A24U C35U C75U: the “polymerase ribozyme fitness (log ratio)” value is -2.19.

For the variant A24G C57A G59U C75A U90G C103G C108U A110C G133U G141C, the “polymerase ribozyme fitness (log ratio)” value was not above -4.2.

For the variant A24U G48A A49G G50A U55A C123A G136C, the “polymerase ribozyme fitness (log ratio)” value was not above -4.2. Regarding A24U A52G C54G C87G C99A G126C, the “polymerase ribozyme fitness (log ratio)” value was not above -4.2.

Consider G25A A28U G34A C57G C99U C118U G143C, for which the “polymerase ribozyme fitness (log ratio)” value is not above -4.2. As to G25A C93A U104G, the “polymerase ribozyme fitness (log ratio)” value is not above -4.2. For A24U U55A G62A C108U A138G, the “polymerase ribozyme fitness (log ratio)” value is not above -4.2. Regarding A23U G68A A73U C99U, the “polymerase ribozyme fitness (log ratio)” value is not above -4.2.

On to A24G C87A C118U G140C, for which the “polymerase ribozyme fitness (log ratio)” value is not above -4.2. On to A24C C93U C125U U148G, for which the “polymerase ribozyme fitness (log ratio)” value was not above -4.2.

On to A23U G67U G68U U77A U104G C129A, for which the “polymerase ribozyme fitness (log ratio)” value is not above -4.2.

For A24G C76G G86A A91U A97G G140C, the “polymerase ribozyme fitness (log ratio)” value was not above -4.2.

As to A24U C93U U104G, the “polymerase ribozyme fitness (log ratio)” value is -1.84.
